The list shows a part of the results. Sequences were assembled here from the parent chain. Values near 0.05 are background.
B1: TEV protease; numbered along this chain (parent)
chain: MGESLFKGPRDYNPISSSICHLTNESDGHTTSLYGIGFGPFIITNKHLFRRNNGTLVVQSLHGVFKVKDTTTLQQHLVDGRDMIIIRMPKDFPPFPQKLKFREPQREERICLVTTNFQTKSMSSMVSDTSCTFPSGDGIFWKHWIQTKDGQCGSPLVSTRDGFIVGIHSASNFTNTNNYFTSVPKNFMELLTNQEAQQWVSGWRLNADSVLWGGHKVFMVKPEEPFQPVKEATQL

Variants of: B1
Experiment: raw area under fraction-flipped curve 0-4 h after induction (AUC4h, not background-subtracted), DNA-recorder readout of cleavage of the substrate (dimensionless); higher = more cleavage of the substrate by the protease variant
Conditions: temperature: 34 °C; time window: 0-4 h after rhamnose induction
Description: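 In vivo DNA recorder in E. coli TOP10(DE3) ΔrhaA at 34 °C. Each TEVp single-site mutant (parent TEVp 0) is paired with a single-site variant of the 7-mer TEVs (canonical ENLYFQ|S). The substrate sits between flexible linkers in a Bxb1-sfGFP-TEVs-SsrA fusion, so cleavage stabilises Bxb1 and speeds flipping of a recombination array, read by NGS. The value is the raw area under the fraction-flipped curve over 0-4 h after rhamnose induction (AUC4h), with ≥20 reads per time point. It is not background-subtracted; inactive controls average about 0.047.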
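Also: Bxb1 expression induced with 0.2% (w/v) L-rhamnose at OD600 near 0.5, cultures sampled hourly, flipped fraction per protease–substrate barcode pair counted by paired-end Illumina sequencing.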

Variant | area with substrate ENLYCQS | area with substrate ENLYEQS | area with substrate ENLYGQS | area with substrate ENLYHQS | area with substrate ENLYLQS | area with substrate ENLYMQS | area with substrate ENLYPQS | area with substrate ENLYQQS | area with substrate ENLYSQS | area with substrate ENLYVQS | area with substrate ENLYDQS | area with substrate ENLYKQS | area with substrate ENLYNQS | area with substrate ENLYRQS | area with substrate ENLYWQS | area with substrate ENLYYQS | area with substrate ENLYIQS | area with substrate ENLYTQS
L190S | 0.0674 | 0.0771 | 0.0631 | 0.0764 | 0.0698 | 0.0777 | 0.0504 | 0.0736 | 0.1 | 0.093 | – | – | – | – | – | – | – | –
L190E | 0.0742 | 0.0647 | 0.0646 | 0.0611 | – | 0.0745 | 0.0798 | 0.0558 | 0.0742 | 0.12 | 0.0673 | 0.0554 | 0.0731 | 0.0668 | 0.0849 | 0.0633 | – | –
Q197S | 0.0673 | 0.0583 | 0.0547 | 0.076 | 0.0796 | – | 0.072 | – | – | 0.103 | 0.0536 | 0.0569 | 0.0787 | – | – | 0.06 | 0.0987 | –
I42T | – | – | 0.058 | – | 0.0518 | 0.0491 | 0.0711 | 0.0512 | 0.0238 | – | 0.0652 | 0.0484 | 0.0559 | 0.0491 | 0.0527 | 0.0405 | 0.0607 | –
K68N | – | – | 0.0599 | 0.066 | – | 0.0935 | 0.0417 | 0.0657 | 0.0714 | 0.14 | 0.0675 | – | 0.0803 | 0.0641 | 0.0643 | – | 0.12 | 0.0981
K68M | – | – | 0.0659 | 0.0534 | 0.0776 | – | 0.0538 | – | – | 0.116 | 0.0618 | 0.0524 | – | 0.0488 | – | 0.0671 | – | –
V57A | – | 0.0609 | 0.0521 | 0.0513 | – | 0.0953 | 0.0588 | 0.0747 | – | 0.121 | 0.0628 | 0.0542 | – | 0.0676 | 0.088 | 0.0837 | 0.142 | 0.0729
V57C | – | 0.0729 | 0.0588 | 0.0705 | – | – | 0.0658 | 0.0531 | 0.0684 | 0.122 | 0.0559 | 0.0447 | 0.0683 | 0.0609 | 0.0729 | 0.0657 | 0.134 | –
G136S | – | 0.0719 | – | 0.0741 | – | – | – | 0.0586 | – | 0.14 | 0.0523 | – | 0.0564 | – | – | – | 0.232 | 0.0647
K90Y | – | – | – | 0.043 | – | 0.0717 | – | 0.0628 | 0.0714 | – | 0.0824 | 0.0627 | 0.0758 | – | – | – | – | –
K98Y | – | 0.0695 | 0.0531 | 0.0723 | – | 0.093 | 0.0693 | – | – | 0.109 | 0.06 | 0.0562 | – | 0.0554 | 0.0771 | 0.0615 | 0.135 | 0.085
R102K | – | 0.0788 | 0.0662 | 0.0649 | – | 0.0874 | 0.0703 | 0.0605 | 0.0914 | 0.123 | 0.0553 | – | 0.0814 | – | 0.0899 | – | – | 0.0856
L73F | – | 0.065 | – | 0.0597 | – | 0.0638 | 0.0594 | – | – | 0.0562 | 0.0671 | 0.0217 | 0.0667 | 0.07 | – | – | – | 0.054
G54F | – | – | – | – | – | – | 0.0875 | – | – | – | 0.108 | 0.0221 | 0.0608 | – | 0.0588 | 0.0664 | 0.0723 | –
N116M | – | 0.0581 | – | – | – | 0.11 | 0.074 | – | – | 0.119 | 0.0587 | – | 0.0806 | – | – | – | 0.127 | –
Q234C | 0.0809 | 0.0684 | 0.0608 | 0.0401 | – | 0.0816 | 0.0736 | 0.0652 | – | 0.104 | – | 0.0783 | – | 0.047 | 0.0483 | – | 0.119 | 0.105
Y34N | – | 0.0764 | – | 0.0726 | – | 0.0788 | – | 0.0636 | – | – | 0.0387 | 0.0639 | 0.0431 | – | – | – | 0.0696 | –

Variant | area with substrate ENLYCQS | area with substrate ENLYEQS | area with substrate ENLYGQS | area with substrate ENLYHQS | area with substrate ENLYLQS | area with substrate ENLYMQS | area with substrate ENLYPQS | area with substrate ENLYQQS | area with substrate ENLYSQS | area with substrate ENLYVQS | area with substrate ENLYDQS | area with substrate ENLYKQS | area with substrate ENLYNQS | area with substrate ENLYRQS | area with substrate ENLYWQS | area with substrate ENLYYQS | area with substrate ENLYIQS | area with substrate ENLYTQS
N193E | 0.0862 | 0.0698 | 0.0694 | 0.0645 | – | – | 0.0632 | 0.0634 | – | 0.106 | 0.0592 | – | 0.0631 | – | – | – | 0.0842 | –
F101D | – | – | 0.0612 | – | – | – | – | 0.053 | – | – | 0.0523 | – | – | – | 0.0507 | – | – | –
F101Y | – | 0.0628 | 0.0575 | – | – | – | 0.0393 | – | – | – | 0.0403 | – | 0.0569 | – | – | – | – | –
I139H | – | – | – | 0.0764 | – | 0.0712 | – | 0.0571 | 0.0775 | – | 0.0628 | 0.0586 | 0.0492 | 0.0588 | 0.0521 | – | – | 0.0676
K7N | – | 0.0682 | – | – | – | 0.0863 | – | 0.0732 | – | – | 0.0559 | 0.0209 | 0.0744 | 0.0748 | 0.0701 | – | – | –
H62C | – | 0.0684 | – | 0.0657 | 0.0924 | 0.0904 | 0.0608 | – | – | 0.15 | 0.051 | 0.0815 | 0.0781 | 0.0544 | 0.0738 | – | 0.122 | 0.0881
Q227N | 0.132 | 0.0685 | 0.0675 | 0.0636 | – | 0.101 | 0.0717 | – | – | 0.141 | 0.0738 | 0.0637 | 0.0851 | 0.05 | – | – | 0.101 | 0.0775
V58E | – | – | – | – | – | – | – | – | – | – | 0.0423 | 0.0084 | – | – | – | – | – | –
Q97K | – | – | – | – | – | – | – | – | – | – | 0.0763 | – | – | – | 0.0527 | – | 0.114 | 0.0906
Q97F | – | – | 0.0539 | – | – | – | 0.0706 | – | – | – | 0.0695 | 0.0686 | 0.0653 | – | 0.0627 | – | 0.141 | 0.0647
W141T | – | – | 0.0605 | 0.0686 | – | 0.0584 | – | – | – | – | 0.0585 | – | – | 0.069 | 0.0729 | – | 0.0592 | 0.0623
D208G | 0.0687 | 0.0646 | 0.0651 | 0.0767 | – | 0.0808 | – | 0.103 | – | – | 0.0594 | 0.0245 | 0.0694 | 0.0571 | 0.0753 | 0.0568 | 0.1 | –
A196Y | 0.115 | 0.0599 | 0.0672 | 0.0736 | 0.0896 | – | 0.0722 | – | 0.079 | – | 0.0722 | 0.058 | 0.0687 | 0.0691 | 0.0928 | 0.0751 | 0.105 | –
F49S | – | 0.0561 | 0.0491 | 0.0561 | – | 0.0582 | 0.0592 | – | – | 0.0728 | 0.0581 | 0.0568 | 0.0542 | 0.0506 | 0.0428 | 0.0505 | 0.0488 | –
L61S | – | – | – | – | – | – | 0.0753 | – | – | – | 0.0124 | 0.0864 | 0.0748 | 0.0567 | – | – | – | –
D27R | – | 0.0207 | 0.0558 | – | 0.134 | 0.0944 | 0.0542 | 0.0561 | – | – | 0.0582 | 0.0899 | 0.0633 | – | – | – | – | 0.0445
F65S | – | 0.0749 | 0.0696 | 0.0374 | 0.0732 | 0.0755 | 0.0617 | – | – | 0.0893 | 0.0731 | 0.0417 | 0.0728 | 0.0673 | – | – | 0.109 | 0.0652

From the supplement of paper PMC12217912
